From the supplement of paper PMC3334620 come the findings set out here.

In all, about 33,000 sequences were measured (“E-score (-0.5 to 0.5)”: median about -0.035, highest 2% from about 0.34 on). The list shows a part of the results.

The target in this experiment is T1, Mot3 (UniProt P54785).
T1 sequence: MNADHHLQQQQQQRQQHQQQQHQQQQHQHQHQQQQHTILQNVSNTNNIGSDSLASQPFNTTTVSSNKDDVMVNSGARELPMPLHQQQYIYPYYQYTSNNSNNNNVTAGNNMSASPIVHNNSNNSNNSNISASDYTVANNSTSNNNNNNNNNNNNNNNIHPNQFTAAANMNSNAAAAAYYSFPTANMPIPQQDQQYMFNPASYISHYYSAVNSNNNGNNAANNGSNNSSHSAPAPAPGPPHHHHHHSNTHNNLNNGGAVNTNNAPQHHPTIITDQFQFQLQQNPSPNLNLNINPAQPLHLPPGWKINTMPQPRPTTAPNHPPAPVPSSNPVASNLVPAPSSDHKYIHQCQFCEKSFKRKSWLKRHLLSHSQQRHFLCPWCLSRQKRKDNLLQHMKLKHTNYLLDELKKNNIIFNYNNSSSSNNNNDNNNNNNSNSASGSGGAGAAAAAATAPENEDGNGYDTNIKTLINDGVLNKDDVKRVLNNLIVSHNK
Kind of experiment: PBM E-score (8-mer binding enrichment) (E-score (-0.5 to 0.5)); higher = stronger / more preferred TF binding; most listed sequences are background and not binding sites. The conditions noted are these: protein concentration: 200 nM; construct: GST-full length. On the procedure: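 Universal 'all 10-mer' protein binding microarrays (Agilent AMADID 015681) probed with GST-tagged S. cerevisiae TFs (full-length or DBD) made by in vitro transcription/translation (PURExpress), about 100-200 nM. Bound TF was detected with fluorescent anti-GST. Each ungapped 8-mer (which stands for itself and its reverse complement) is scored by the PBM enrichment score (E-score), a modified Wilcoxon-Mann-Whitney statistic from -0.5 to +0.5, computed with the Universal PBM Analysis Suite. Scale: above 0.35 generally sequence-specific binding.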
Consider CAGACTTA, for which the “PBM E-score” value was found to be 0.0452. For CCTGACCA, the “PBM E-score” value is 0.028.

On to GCTACAGA, for which the “PBM E-score” value is -0.162.

With CGCGGTAG, the “PBM E-score” value was -0.00299. On to ATAACAAC, for which the “PBM E-score” value was 0.216. With ATATTAAC, the “PBM E-score” value was 0.183. In the case of GCTCGTTA, the “PBM E-score” value was 0.0557. For CCTAACTC, the “PBM E-score” value is -0.044.

On to CAAACGTC, for which the “PBM E-score” value is -0.108. The same measure for GCATACCC: -0.117; for CTCTGCCA: -0.141; for CTCGGACA: -0.164. Take ATTGTCTA: the “PBM E-score” value worked out at 0.224. The same measure for ATCTGATA: -0.17; for GCAATCGC: -0.184; for CTAATTGA: 0.0597. For the sequence CCACAATA, the “PBM E-score” value was -0.0891. AATGGCTC: the “PBM E-score” value is -0.0767. With CGTAGGCA, the “PBM E-score” value was 0.487. The same measure for CTCGGCCC: -0.261; for ACTCACAG: 0.012; for CTCCGATC: -0.0283. Turning to AGGAATAG, the “PBM E-score” value turned out to be 0.0238.

In the case of AATCTCCG, the “PBM E-score” value was -0.173.

Regarding TGCCTGAA, the “PBM E-score” value was 0.48.

Consider GAGGCATA, for which the “PBM E-score” value is -0.154. For CATTTCAA, the “PBM E-score” value was 0.111. Take GCTGGAAA: the “PBM E-score” value was -0.0822. The same measure for AGCATTAC: 0.225; for GAAGGTGA: -0.132; for ACTACTGA: -0.0886.

GGGATGAA: the “PBM E-score” value is -0.203.

For AAAACTTC, the “PBM E-score” value was 0.00572. Consider AGTGCTTC, for which the “PBM E-score” value was -0.0636. Turning to ACTGCCGG, the “PBM E-score” value is -0.26. Regarding AAAGTATC, the “PBM E-score” value worked out at 0.103. For ATAAACCA the value was -0.0231; for ATCGCCTC, -0.178.

AGACGTAG: the “PBM E-score” value is -0.0302. The same measure for ATGGACGC: -0.131; for AGTAACAT: 0.263.

In the case of GGGATCCC, the “PBM E-score” value is -0.297.

In the case of CAGTCTCA, the “PBM E-score” value was -0.0239. As to ATGCCAGC, the “PBM E-score” value was -0.18.

On to AGCATGAT, for which the “PBM E-score” value was -0.0258. For GATCCTCA the value was -0.027; for AGGGCACA, 0.3.

As for AAACGATC, the “PBM E-score” value is -0.0558.

Consider CGGCCTCC, for which the “PBM E-score” value was -0.122. GAATAGGC: the “PBM E-score” value amounted to 0.19. For AGCTGACC the value was -0.253; for CGCGAACG, -0.179; for AAGGCCGA, -0.184. With ACCTACGC, the “PBM E-score” value is 0.0391. Consider ATTCGAGA, for which the “PBM E-score” value is -0.0274. With AAGGTATG, the “PBM E-score” value came to 0.0554. For ACTTGTGA the value was 0.097; for AACACAAG, 0.262. For AGAAAGCA the value was 0.103. For the sequence TGAAAACA, the “PBM E-score” value was found to be 0.238. For ACCCACCC the value was -0.0653; for GGTAGTAC, -0.0492; for GACATCAA, -0.0384. As for CTCCCGCA, the “PBM E-score” value was -0.145.

CTCTCGGC: the “PBM E-score” value was -0.216. The same measure for AAGTGGGA: -0.105.

Turning to AGCTAGCC, the “PBM E-score” value was -0.214.

As for CCTCAACC, the “PBM E-score” value was -0.15. The same measure for ACTCCGTC: -0.118; for GCCCGAAC: -0.219.

As for AGTCCCTC, the “PBM E-score” value was -0.327. As for GGAAGGAA, the “PBM E-score” value is 0.384. On to ACCGTACT, for which the “PBM E-score” value is -0.102. In the case of AATCCTCT, the “PBM E-score” value was -0.0389. For CACTTCAG the value was -0.13; for ACACTTAT, 0.05. For the sequence CTGACCCC, the “PBM E-score” value was -0.299. As for ACCGTTGA, the “PBM E-score” value is -0.257. For ATCTATAC, the “PBM E-score” value worked out at 0.0171.

On to CCACTCCC, for which the “PBM E-score” value was -0.375. For CGGCTTGC the value was 0.131.

Take AACACAGC: the “PBM E-score” value was found to be 0.268. Turning to CTCAACAC, the “PBM E-score” value was found to be 0.292.

For the sequence GGTTGGGA, the “PBM E-score” value was -0.237. As to CAGGCGGC, the “PBM E-score” value is -0.0706. For CATATCGA the value was -0.0609. The same measure for ATACCGCA: -0.142; for CTGGTCCA: -0.209; for CCTGTGCC: 0.361. In the case of GATAGCGA, the “PBM E-score” value was -0.243. Turning to CCAGCTAG, the “PBM E-score” value is -0.0732.

Take AGAAGAAG: the “PBM E-score” value was -0.0319. For CTCAGGCA the value was 0.462; for ATACGCGA, 0.284. Take CAGTCTCG: the “PBM E-score” value is -0.328. Take CTCTACTA: the “PBM E-score” value was determined as 0.069. For ATACAGGG the value was 0.0916. The same measure for GTTGGCGA: -0.149; for CCGGATCA: 0.0643.

As for AATACGAT, the “PBM E-score” value was 0.158.

Regarding CCGATGCA, the “PBM E-score” value is -0.177. As to GTACTAGA, the “PBM E-score” value was 0.125. Take AAGCCTGA: the “PBM E-score” value was -0.142.

Turning to ACTTAGTA, the “PBM E-score” value is -0.0217.

As to GAACCTAC, the “PBM E-score” value was determined as 0.213. For ACATCGGG the value was -0.13; for ACTTACAG, 0.104. For CGCGGTCA, the “PBM E-score” value was -0.223.

Take GGTGCCCA: the “PBM E-score” value is 0.293.

As to ATCAACGC, the “PBM E-score” value came to 0.194.
